Source: PubChem BioAssay AID488969 (Vanderbilt High Throughput Screening Facility, 2010)
Whole data set: some 110,000 compounds, median “z-score” near -0.1, cut for the highest 2% near 2. This is one part of the list.

What follows are molecules tested against Metabotropic glutamate receptor 8 (Rattus norvegicus) (UniProt P70579) (assay: rat mGluR8 modulators via GIRK flux, primary screen, cell-based, thallium flux, HTS (AID 488969)). Settings: HEK293 rat mGluR8, GIRK (G protein-gated inwardly rectifying potassium channel) thallium flux, FluoZin2; at 10 µM; stronger effect = higher value; submaximal glutamate (EC20) added with thallium.
Chain of UniProt P70579 (P70579 whole entry, looked up): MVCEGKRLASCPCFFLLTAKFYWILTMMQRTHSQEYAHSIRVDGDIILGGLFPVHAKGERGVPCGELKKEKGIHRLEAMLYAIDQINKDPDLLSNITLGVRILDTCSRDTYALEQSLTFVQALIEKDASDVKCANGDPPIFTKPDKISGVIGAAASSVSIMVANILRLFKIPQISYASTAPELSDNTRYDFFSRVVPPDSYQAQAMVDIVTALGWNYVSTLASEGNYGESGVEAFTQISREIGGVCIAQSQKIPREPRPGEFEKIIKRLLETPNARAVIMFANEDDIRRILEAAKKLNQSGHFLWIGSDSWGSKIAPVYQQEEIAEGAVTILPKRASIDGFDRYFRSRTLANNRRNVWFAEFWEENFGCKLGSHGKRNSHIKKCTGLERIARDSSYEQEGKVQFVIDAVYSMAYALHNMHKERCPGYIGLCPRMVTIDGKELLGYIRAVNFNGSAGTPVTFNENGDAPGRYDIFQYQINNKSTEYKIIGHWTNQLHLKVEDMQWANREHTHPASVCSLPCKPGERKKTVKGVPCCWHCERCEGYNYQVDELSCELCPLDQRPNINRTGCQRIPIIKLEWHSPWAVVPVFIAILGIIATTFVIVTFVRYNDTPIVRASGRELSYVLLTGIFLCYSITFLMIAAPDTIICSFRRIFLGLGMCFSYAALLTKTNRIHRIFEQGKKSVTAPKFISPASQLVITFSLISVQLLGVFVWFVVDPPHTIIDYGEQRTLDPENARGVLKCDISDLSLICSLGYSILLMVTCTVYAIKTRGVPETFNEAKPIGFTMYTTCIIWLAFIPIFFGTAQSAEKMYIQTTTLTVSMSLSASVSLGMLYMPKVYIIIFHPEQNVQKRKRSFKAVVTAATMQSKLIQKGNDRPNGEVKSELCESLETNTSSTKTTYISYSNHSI

Structure (SMILES)	z-score
O=C(Nc1ccc(Cl)cc1)N1CCCN(Cc2ccc(F)cc2)C1	2.53
CCOc1cc(C2C(C(=O)c3ccccc3)=C(C(=O)OC)Nc3nnnn32)ccc1O (stereo not drawn)	0.203
CCN(CC)CCOC(=O)c1ccc2c(c1)OCCO2	0.102
Cc1ccc(N2C(=O)CC(n3nc(C)cc3C)C2=O)cc1 (stereo not drawn)	-0.158
COC(=O)c1ccc(CSc2nnc(Nc3ccc(C)cc3)s2)o1	-0.123
COc1ccc(-c2noc(-c3ccc(Cl)cc3)n2)cc1	-0.685
CCn1c(C(=O)N2CCC(C(=O)NCc3cccs3)CC2)cc2sccc21	0.364
Cn1cnc2cc(NC(=O)c3ccc(Cl)cc3)ccc21	1.55
CC(=O)OCCCN1c2ccccc2Nc2nnc(-c3ccccc3)cc21	-0.13
CCC1/C(=N\O)CC(c2ccco2)NC1c1ccco1 (stereo not drawn)	-0.0574
COc1ccc(OC)c(NC(=O)c2ccc(NS(C)(=O)=O)cc2)c1	-0.288
Cn1c(=O)c2cn3c(c2n(C)c1=O)C(c1ccccc1)CC(c1ccccc1)=N3 (stereo not drawn)	-0.736
O=C(CN1C(=O)c2cccc3cccc1c23)N1CCN(c2ccccc2)CC1	-0.0213
Cc1cc(N2CCN(C)CC2)nc2ccc(NC(=O)CCC(=O)NCc3ccco3)cc12	-0.198
Cc1ccc2nc(SCc3nnc(-c4ccccc4[N+](=O)[O-])o3)c(C#N)cc2c1	-0.113
CCOCCN1CCN(C(=O)CN2CCCC2=O)CC1	0.0619
CCC(C)Sc1nnc(CNC(=O)C23CC4CC(CC(C4)C2)C3)n1C1CCCCC1 (stereo not drawn)	0.319
CC(=O)Nc1ccc(S(=O)(=O)N2CCN(Cc3ccccn3)CC2)cc1	0.197
CCNCCNC(=O)c1c(O)c2ccccc2n(CC)c1=O	-0.289
Cn1cc(C(=O)c2ccc(Cl)cc2Cl)cc1C(=O)N/N=C(\N)COc1ccc(Cl)cc1Cl	0.13
NC(N)=N/N=C/c1ccc(OCc2ccc(Cl)cc2Cl)cc1	0.0763
Cc1cc(C)c(/C=N/n2c(C)cc(C)c(C#N)c2=O)c(C)c1	-0.219
Cc1ccc(NC(=O)c2c(C)noc2C)cc1	-0.163

Structure (SMILES)	z-score
NC(=O)c1c(NC(=O)c2cccnc2Cl)sc2c1CCCC2	-0.396
c1ccc(OCCCc2nc(-c3ccccn3)no2)cc1	-0.423
CC(C)OC(=O)CCNc1n[nH]c(=O)[nH]c1=O	0.028
CCOc1ccc2c(C)cc(=O)oc2c1OCC	0.743
CCOC(=O)c1cc2sccc2n1CC(=O)Nc1ccc(OC)cc1	-0.165
Cc1onc(-c2c(Cl)cccc2Cl)c1C(=O)NCCc1ccc(S(N)(=O)=O)cc1	-0.481
N#Cc1cccc(-n2nnnc2-c2ccc3c(c2)OCO3)c1	-0.154
COC(=O)Cc1ccc(NC(=S)NCc2ccccc2Cl)cc1	-0.159
CCN1CCN(C(=S)c2ccc(Cl)cc2)CC1	-0.0353
CC1=C(C(=O)OCC2CCCO2)C(c2ccccc2OC(C)C)C2=C(CC(c3ccco3)CC2=O)N1 (stereo not drawn)	-0.12
O=C(CN1CCN(Cc2ccccc2Cl)C1=O)N1CCCCCC1	-0.349
CCc1nnc(NC(=O)C2CCCN2C(=O)Nc2ccccc2OC)s1 (stereo not drawn)	-0.336
CCC(=O)c1ccc(N2CCCCCC2)c(F)c1	-0.499
Cc1cccc(OCCn2c(=O)sc3ccccc32)c1	-0.343
O=c1c(F)cn(C2CCCO2)c(=O)n1Cc1ccccc1F (stereo not drawn)	-0.118
CCOC(=O)C(NS(=O)(=O)c1ccc(C)cc1)(C(F)(F)F)P(=O)(OCC(C)C)OCC(C)C (stereo not drawn)	-0.0646
CCCOc1c(OC)cc(Cl)cc1C1NC(=O)NC(C)=C1C(=O)NCc1ccccc1 (stereo not drawn)	-0.431
COc1ccccc1C(=O)N1CCN(S(=O)(=O)Cc2ccccc2)CC1	0.154
Cc1cccc(OCC(=O)Nc2ccccc2C(F)(F)F)c1	0.0733
Cc1c(C(=O)NN)nc2ccccn12	-0.145
O=C(CCOc1ccccc1)NCc1ccccc1	0.171
O=C(CCc1ccc(Oc2cc([N+](=O)[O-])cc([N+](=O)[O-])c2)cc1)N1CCCCC1	-0.235
CCN(C(=O)CN1CCCCC1)C1(C)C(=O)c2ccccc2C1=O	-0.119

Structure (SMILES)	z-score
O=C(Cc1cccc(C(F)(F)F)c1)NCc1ccc(Cl)cc1Cl	-0.218
COc1ccc(-n2c(Cc3cc(=O)[nH]c(=O)[nH]3)nnc2SCC(=O)Nc2ccccc2)cc1	-0.295
Cc1cc(C)c2c(n1)nn1c(N3CCN(c4ccccc4)CC3)cc(C)nc21	-1.2
CCCc1cc(C(=O)N/N=C/c2ccc(C)o2)c2ccccc2n1	-0.00973
CCCCCCSc1nsc(N)n1	-0.0195
COC(=O)c1sc(S(=O)(=O)N2CCN(c3ccccc3)CC2)c(C(=O)OC)c1C	0.537
COc1cc(CN2CC(C)CC(C)C2)cc([N+](=O)[O-])c1O (stereo not drawn)	0.0599
CCCN(CCC)c1nc2ccccc2n2c(C)nnc12	-2.51
O=S(=O)(c1ccc2ccccc2c1)N1CCN(C2CCN(Cc3ccccc3)CC2)CC1	0.282
COc1ccc(-n2c(C)nc3cc(C(=O)NCc4ccc5c(c4)OCO5)ccc32)cc1	-0.347
O=C(Nc1ccncc1)C1CC1c1ccccc1 (stereo not drawn)	-0.0243
CC(C)COc1ccc(C(=O)CCN2CCCCC2)cc1	-0.18
CCc1nc2ccc(F)cc2c(C(=O)NC2CCCCC2C)c1C (stereo not drawn)	0.0814
C=CCn1c(-c2ccoc2C)n[nH]c1=S	-0.182
CN(C)CC(O)COc1cc2ccccc2cc1C(=O)N1CCCCC1 (stereo not drawn)	0.233
Cc1cc(C)cc(NC2=CC(=O)CC(c3ccco3)C2)c1 (stereo not drawn)	0.39
N#C/C(=C\c1ccccc1)C(=O)NC(=O)Oc1ccccc1	-0.263
Cc1ccc(Cl)cc1NC(=O)CSC(N)=O	0.476
CCS(=O)(=O)Nc1ccc(C2=NN(C(=S)Nc3ccccc3)C(c3ccco3)C2)cc1 (stereo not drawn)	-0.107
C1CN(CC23CC4CC(CC(C4)C2)C3)CCO1	-0.225
COc1ccc(CNc2ccc3cn[nH]c3c2)c(OC)c1OC	-0.128
CC(=O)c1c(C)[nH]c(C(=O)OCC(=O)C(C)(C)C)c1C	-0.364
COc1cccc(N=C2C(=O)N3CCCc4cccc2c43)c1	-0.13

Structure (SMILES)	z-score
CCOc1ccc(NC(=O)c2nccnc2CO)cc1	-0.103
CCOC(=O)c1c(C)nc2sc(C(=O)Nc3ccc(OC)cc3)c(N)c2c1-c1ccc(OC)cc1	0.136
COc1ccc(/C=N/NC(=O)CNC(=O)c2ccc3c(c2)OCCO3)cc1OC	-0.198
O=C(N/N=C/c1cccs1)c1cc(-c2ccc3ccccc3c2)n[nH]1	-0.0227
Cc1ccc(-c2noc(CN(C(=O)C(c3ccccc3)c3ccccc3)C(C)C)n2)cc1	-0.159
O=C(N1CCNCC1)N1CCOCC1	0.0355
FC(F)(F)c1cccc(N2CCc3cn[nH]c32)c1	-0.459
CCOC(=O)C1CCCN(S(=O)(=O)c2cn(C)c(=O)n(C)c2=O)C1 (stereo not drawn)	0.476
CNc1nc(C)c(C#N)c(-c2ccccc2)c1C(C)=O	-0.525
COc1cccc(-c2nc(-c3ccccc3)[nH]c(=O)c2C#N)c1	-0.663
CC(C)(Oc1ccc(Cl)cc1)C(=O)N(Cc1ccccc1)c1ccccn1	1.1
CN1C(=O)c2cccc3c(S(=O)(=O)Nc4ccccn4)ccc1c23	0.126
CCC(c1nnnn1C(C)(C)C)N1CCN(c2cc(Cl)ccc2C)CC1 (stereo not drawn)	-0.203
CCc1cc2c(SCC(=O)c3ccc(Cl)s3)ncnc2s1	-0.124
CC1CC(C)CN(C(=O)C2CCCN(S(=O)(=O)c3cccc4nonc34)C2)C1 (stereo not drawn)	-0.994
O=S(=O)(Nc1cccc2c1CCCC2)c1cccc(C(F)(F)F)c1	-0.417
O=C(CSCc1ccccc1)N1CCN(c2ccc(F)cc2)CC1	-0.36
CCCNS(=O)(=O)c1ccc(OCC(=O)Nc2ccccc2F)cc1	-0.0555
CCOC(=O)C1CCN(S(=O)(=O)c2cccc(-c3csc(C)n3)c2)CC1	-0.358
c1ccc(Cn2c(-c3cccs3)nc3nc4ccccc4nc32)cc1	1.11
CCOc1c(C#N)c(C#N)c2nc(C)cc(C)n12	0.00345
O=C(CSc1ncn(-c2ccccc2)n1)NCc1ccccc1	-0.242
Cc1nnc(SCCn2c(N3CCCCCC3)nc3c2c(=O)[nH]c(=O)n3C)s1	0.0833

Structure (SMILES)	z-score
CCSC1=C(C#N)C(c2ccccc2Cl)C(C(=O)c2cccs2)C(O)(C(F)(F)F)N1 (stereo not drawn)	-0.464
Cc1ccc2c(c1Br)/C(=N/N1C(=O)c3ccccc3C1=O)C(=O)N2	-0.999
Cn1c(=O)[nH]c(=O)c2c1nc(N(CCO)Cc1ccccc1)n2CCCc1ccccc1	-0.178
CC(=O)c1ccc(NC2c3ncccc3C(=O)N2Cc2ccc(F)cc2)cc1 (stereo not drawn)	-0.0325
O=c1oc2ccccc2c2nccnc12	-0.322
Cc1ccccc1Cn1cc(NC(=O)c2nc3ncccn3n2)cn1	2.77
COc1cc(OC)c(C2=NOC(C(=O)Nc3cc(C)nn3-c3ccccc3)C2)cc1Cl (stereo not drawn)	-0.258
CCCCN(C(=O)Cn1nnc2ccccc21)C(C(=O)NCc1ccco1)c1ccncc1 (stereo not drawn)	0.147
Cc1ccc(SCC(=O)Nc2ccc(-c3nc4ccccc4[nH]3)cc2)cc1	-0.486
O=C(c1cccs1)N1CCN(Cc2nc3ccccc3c(=O)[nH]2)CC1	-0.258
CCN(CC)C(=O)c1cnn(-c2ccccc2)c1NC(=O)c1cccc(F)c1	0.0315
O=C(Nn1cnc2ccccc2c1=O)c1ccccc1Cl	0.134
CCc1ccccc1NC(=O)CSc1ncn[nH]1	-0.0941
CCOc1ccc(/C=C(\C#N)C(=O)Nc2cccnc2)cc1	-0.416
COc1ccc(C(CCNC(C)c2ccccc2)c2ccc(F)cc2)cc1 (stereo not drawn)	1.71
Cc1cc(N2CCOCC2)nc(-c2ccccc2O)n1	-0.358
O=C(Cn1c(=O)oc2cc(S(=O)(=O)N3CCCC3)ccc21)N1CCN(C2CCCCC2)CC1	-0.245
O=C(COc1ccccc1Br)NCc1ccco1	0.149
Cc1ccc(NC(=S)N2CCC(c3nc4ccccc4s3)CC2)cc1C	-0.482
CCSC1=N/C(=C/c2ccsc2)C(=O)N1c1ccccc1	-0.016
Cc1c(NC(=O)c2cccc(NC(=O)c3ccco3)c2)cccc1C(=O)O	-0.0668
